# Assay results from publication PMC4336329 (PLoS ONE, 2015).
# Screen size: about 310,000 compounds; about 14,000 (4.5%) showed an effect of 50% or more. Effects have a minus sign here. The list shows a part of the results.
# Molecular target: human ether-à-go-go-related gene (hERG) potassium channel (human, UniProt Q12809)
# Experiment: primary screen, population patch clamp on CHO cells stably expressing hERG
# 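Further: peak tail current of the secondary pulse compared with the same well before compound.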
# human ether-à-go-go-related gene (hERG) potassium channel, sequence (Q12809 whole entry, looked up): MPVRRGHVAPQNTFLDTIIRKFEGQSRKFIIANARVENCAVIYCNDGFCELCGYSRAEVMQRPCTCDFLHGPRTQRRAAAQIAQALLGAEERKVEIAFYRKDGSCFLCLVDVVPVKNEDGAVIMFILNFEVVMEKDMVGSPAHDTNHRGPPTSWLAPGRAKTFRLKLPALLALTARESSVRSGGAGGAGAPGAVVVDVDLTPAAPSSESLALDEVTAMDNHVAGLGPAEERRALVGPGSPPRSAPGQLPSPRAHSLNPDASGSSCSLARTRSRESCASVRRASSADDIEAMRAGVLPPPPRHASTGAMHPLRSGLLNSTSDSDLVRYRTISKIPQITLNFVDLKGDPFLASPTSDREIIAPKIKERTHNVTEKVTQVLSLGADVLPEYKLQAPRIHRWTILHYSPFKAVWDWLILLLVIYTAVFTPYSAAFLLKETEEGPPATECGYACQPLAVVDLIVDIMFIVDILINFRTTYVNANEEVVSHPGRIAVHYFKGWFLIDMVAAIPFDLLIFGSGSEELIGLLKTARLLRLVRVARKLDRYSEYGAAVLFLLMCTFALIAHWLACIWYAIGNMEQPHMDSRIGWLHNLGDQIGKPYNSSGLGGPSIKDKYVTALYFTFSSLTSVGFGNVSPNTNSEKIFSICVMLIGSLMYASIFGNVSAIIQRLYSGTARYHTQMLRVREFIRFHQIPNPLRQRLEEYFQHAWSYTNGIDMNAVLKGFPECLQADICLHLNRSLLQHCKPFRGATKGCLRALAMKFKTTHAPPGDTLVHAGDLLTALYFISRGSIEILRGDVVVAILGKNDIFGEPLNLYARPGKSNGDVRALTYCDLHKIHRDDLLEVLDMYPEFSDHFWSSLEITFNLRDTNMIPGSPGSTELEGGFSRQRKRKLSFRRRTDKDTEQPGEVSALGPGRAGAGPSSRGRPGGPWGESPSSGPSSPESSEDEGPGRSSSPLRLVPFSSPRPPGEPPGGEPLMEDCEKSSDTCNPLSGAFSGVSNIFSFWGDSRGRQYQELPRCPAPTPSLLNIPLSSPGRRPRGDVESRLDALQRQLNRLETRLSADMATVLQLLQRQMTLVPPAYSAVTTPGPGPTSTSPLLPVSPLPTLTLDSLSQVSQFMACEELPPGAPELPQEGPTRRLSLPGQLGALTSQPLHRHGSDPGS
row,SMILES,"hERG current change (%, negative = inhibition) at 10uM [%]"
1,CCC(=O)c1ccc(Oc2nc3c(c(=O)n(C)c(=O)n3C)n2CC)cc1,-2.89
2,COc1ccc(CN2C(=O)NC3(CCOc4ccccc43)C2=O)cc1F (centres unmarked),-13.4
3,O=C(CN1C(=O)CSc2ccccc21)Nc1ccccc1C(=O)N1CCOCC1,7.69
4,CN(c1ccccc1)S(=O)(=O)c1cccc(NC(=O)c2nn(C)c(=O)c3ccccc23)c1,-23.8
5,Cc1ccc(C(=O)COC(=O)CCN2C(=O)C3C4CCC(C4)C3C2=O)cc1C (centres unmarked),7.04
6,CCc1ccc(C(=O)COC(=O)CNC(=O)c2ccc(N3C(=O)c4ccccc4C3=O)cc2)cc1,-7.76
7,Clc1cc(NC2CCCCC2)ncn1,26.3
8,COC(=O)c1ccc(C2C(C(=O)Nc3ccc(C)cc3C)=C(C)Nc3ncnn32)cc1 (centres unmarked),-3.95
9,CN(C)S(=O)(=O)c1ccc(C(=O)Nc2nnc(SCc3ccccc3)s2)cc1,18.3
10,CCOCCc1c(O)nc(SCCOc2ccc(C)c(C)c2)[nH]c1=O,7.24
11,Cc1ccc(-n2nnnc2-c2ccccc2)cc1,-1.18
12,CCc1ccccc1NC(=O)Nc1ccc2c(c1)OCO2,26.6
13,CCN(CC)CCN1C(=O)c2ccccc2NC1c1cc(OC)c(OC)c(OC)c1 (centres unmarked),-40.7
14,O=C(COC(=O)C1CC(=O)N(CCc2ccccc2)C1)c1ccc[nH]1 (centres unmarked),-41.8
15,FC(F)(F)c1ccc(Oc2ccccc2Cl)nc1,14.3
16,CC1(c2ccc3c(c2)OCCO3)NC(=O)N(CC(=O)Nc2c(F)cccc2F)C1=O (centres unmarked),-0.206
17,CN(C)CCCC(C)(O)C(Cc1ccccc1)c1ccccc1.Cl (centres unmarked),7.05
18,CC(=O)Nc1cccc(NC(=O)COc2ccc3c(c2)CCC3)c1,-14.2
19,CCCn1c(N)c(N(CCOC)C(=O)c2ccc(C#N)cc2)c(=O)[nH]c1=O,27.6
20,CCOC(=O)Cc1csc(NS(=O)(=O)c2ccc([N+](=O)[O-])cc2)n1,7.89
21,COC(=O)c1ccc(-n2cnc3ccccc32)nc1,10.2
22,COc1ccccc1/C=C(/CC(=O)NCc1ccccc1)c1nc2ccccc2s1,7.17
23,CCN(CC)c1ccc(NC(=O)c2cc(OC)cc(OC)c2)c(C)c1,-19.9

row,SMILES,"hERG current change (%, negative = inhibition) at 10uM [%]"
1,CCCCSc1nnc2nc(C)cc(C)n12,-16
2,CCn1nc(C)c(Br)c1C(=O)Sc1ccccc1Cl,21.2
3,O=C(OC1CCOC1=O)c1ccc(N2CCCC2)c([N+](=O)[O-])c1 (centres unmarked),-13.9
4,Cc1cc(NC(=O)COC(=O)C2CC2)ccc1Br,-4.02
5,CC(=O)c1ccc(N(C(=O)CNC(=O)c2ccco2)C(C(=O)NC2CCCC2)c2ccco2)cc1 (centres unmarked),8.35
6,COc1ccc(S(=O)(=O)N2CCOCC2)cc1C(=O)N1CCCCC1,-31.6
7,NC(=O)CCn1c(=O)oc2ccccc21,-6.59
8,CC(C)[C@H](NC(=O)N1CC(=O)Nc2ccccc21)C(=O)N1CCC[C@@H]1C(=O)O,8.41
9,O=C(Nc1ccc(F)cc1)c1ccc2nc[nH]c2c1,11.4
10,COC(=O)/C=C(\Oc1ccccc1)C1(O)CCCCC1,11.6
11,Cc1cccc(NC(=O)c2cc(S(=O)(=O)N3CCCCC3)c[nH]2)c1C,12.4
12,COC(=O)CSc1ccc(S(=O)(=O)N2CCCCCC2)cc1[N+](=O)[O-],23.7
13,Cc1ncccc1C(=O)N1CCCC(CNC(=O)C2(c3ccc(Cl)cc3)CC2)C1 (centres unmarked),11.2
14,CCOC(=O)/C(=C/Nc1ccccc1)[N+](=O)[O-],8.7
15,O=[N+]([O-])c1ccc(N/N=C/c2cccs2)nc1,13.8
16,O=C(O)c1sc2cc(C(F)(F)F)cnc2c1-c1cccs1,-1.86
17,CC(=O)NCC(=O)OC(C(=O)c1ccccc1)c1ccc(Cl)cc1 (centres unmarked),-8.87
18,COc1ccc(/C=N/NC(=O)c2cccc(S(=O)(=O)N3CCCC3)c2)cc1O,-20.3
19,COc1ccccc1NC(=O)CN(c1ccc([N+](=O)[O-])cc1)S(=O)(=O)c1ccccc1,-11.6
20,CC1(c2ccccc2)NC(=O)N(CC(=O)Nc2cccc(C#N)c2)C1=O (centres unmarked),3.1
21,COCC1CCN(C(=O)c2cc(COc3ccc4ncccc4c3)on2)CC1,8.36
22,O=C(O)c1ccc(NC(=S)NC(=O)c2cncc(Br)c2)cc1,20.1
23,O=C1C2C3c4ccccc4C(c4ccccc43)C2C(=O)N1Cc1cccnc1 (centres unmarked),-14.7

row,SMILES,"hERG current change (%, negative = inhibition) at 10uM [%]"
1,CCc1c(C#N)c(SCc2c(C)noc2C)nc2c1C(=O)CC(C)(C)C2,-10.8
2,O=C(c1cc2ccccc2oc1=O)N1CCSC1c1ccco1 (centres unmarked),4.13
3,O=C(Nc1ccon1)c1cc2c(s1)CCCCCC2,-7.56
4,CC1CCN(C(=O)CCNS(=O)(=O)c2ccc3c(c2)c(=O)n(C)c(=O)n3C)CC1,3.47
5,O=C1c2cc(O)c(O)cc2S(=O)(=O)C1c1ccccc1 (centres unmarked),15.1
6,O=C(COc1ccc(Cl)cc1Cl)N/N=C1\CCCc2ccccc21,2.52
7,Cc1ccc(/C=N/OC(=O)c2nn(C)cc2Cl)cc1,1.81
8,Cc1cc(C)c2c(N)c(S(=O)(=O)Cc3ccccc3)sc2n1,-33.3
9,Cc1csc2nnc(N)n12,8.19
10,CC(C)C(C(=O)Nc1ccncc1)c1ccc(Cl)cc1 (centres unmarked),8.32
11,CCOc1ccc(NC(=O)CSc2ccc3nnc(-c4cccnc4)n3n2)cc1,-54.7
12,C=CCn1c(CCCOc2ccc(Cl)cc2Cl)n[nH]c1=S,7.6
13,CS(=O)(=O)n1nc(C(=O)N2CCOCC2)nc1N,4.68
14,O=C(CSc1ccccc1)NCCCc1ccccc1,-4.52
15,Cn1ccnc1CN1CCN(C(=O)c2cc(COc3ccc(F)c(F)c3)on2)CC1,-32.9
16,Cc1ccc2nc3n(c2c1)CCCN3,-8.28
17,CN(C)CCNC(=O)c1nn(C)c2c1CCc1ccccc1-2,-12.4
18,COc1ccc(C(=O)c2cn(-c3cccc(Br)c3)nc2C(C)=O)cc1,9.29
19,Cc1ccc(C(=O)CC(=O)c2cc(Cl)ccc2O)cc1,8.83
20,CCCNC(=O)c1ccc(-c2nn(C)c(=O)c3ccccc23)cc1,4.68
21,CC1CCC2C(=O)N(c3ccccc3OC(=O)c3ccccc3)C(=O)C2C1 (centres unmarked),6.37
22,CC1CC(C)CN(S(=O)(=O)c2cccc(C(=O)N3CCN(c4ccc(F)cc4)CC3)c2)C1 (centres unmarked),-51.9
23,CC1CCC(NC(=O)C2CC(=O)N(c3ccc(Cl)cc3)C2)CC1 (centres unmarked),13.8

row,SMILES,"hERG current change (%, negative = inhibition) at 10uM [%]"
1,CC1CN(CC(=O)Nc2ccc([N+](=O)[O-])cc2Br)CC(C)O1 (centres unmarked),-33
2,O=C(c1ccc(Br)cc1)N1CCN(c2ncccn2)CC1,-10.7
3,O=C(O)c1cccnc1SCC(=O)N1CCCCCC1,-2.09
4,O=C(NCc1ccc2c(c1)OCO2)c1ccc(N2CCCC2=O)cc1,8.43
5,Cc1ccc(C(=O)N(CCc2ccccc2)Cc2ccccc2)cc1S(=O)(=O)N1CCCCC1,-14.9
6,Cc1cc(C(=O)CNCc2ccco2)c(C)n1-c1ccc(F)cc1,-7.75
7,CCn1c(SCC(=O)Nc2cc(C)on2)nnc1-c1ccc(S(=O)(=O)N2CCN(C)CC2)cc1,-23.1
8,O=C(Nc1ccccc1)c1cc2c(=O)c3ccccc3oc2nc1C(F)(F)F,11.1
9,Cc1cc(NC(=O)CN2C(=O)c3ccccc3C2=O)no1,11.4
10,CCn1nc(C)c(/C=N/NC(=O)Cn2nccc2C)c1C,2.17
11,CCCCC(=O)OCc1cn(-c2ccc(Cl)cc2)nn1,0.689
12,CN(C)/C=C/c1c(C#N)c(=O)ncn1Cc1ccccc1,15.9
13,COc1cc(OC)c(NC(=O)c2ccoc2C)cc1Cl,12.7
14,CC(C)c1ccc(S(=O)(=O)c2cn(Cc3ccc(F)cc3)c3cc4c(cc3c2=O)OCO4)cc1,-1
15,COc1ccc(-c2cc(C(=O)N3CCN(c4ccccc4F)CC3)c3ccccc3n2)c(OC)c1,2.56
16,O=C(Nc1ccc(Cl)cc1)Nc1nnc(SCc2ccccc2)s1,9.24
17,O=C(NC1CC(=O)N(c2ccc(F)cc2)C1)N1CCN(C(=O)c2ccco2)CC1 (centres unmarked),-63
18,CC(=O)Nc1ccc(S(=O)(=O)NCC2CCC(C(=O)NCCCN(C)Cc3ccccc3)CC2)cc1 (centres unmarked),6.98
19,CCN(CC)C(=O)NC1CC2CCCC(C1)N2Cc1ccccc1 (centres unmarked),-6.25
20,O=[N+]([O-])c1cc([N+](=O)[O-])c(Oc2cc(Cl)cc(Cl)c2)cc1NN1CCCCC1,18.4
